Results from PubChem BioAssay AID686979 (National Center for Advancing Translational Sciences (NCATS), 2013).
Several values for one entry are separate records, joined by “and”; a condition that tells them apart may be missing. Equal values may be shown once. Screen size: about 420,000 compounds; about 50,000 (12%) were called active. The inconclusive results got no clear call from the source; some entries with a clear call stand among them for comparison. The call rests on the fitted dose curve; in most records, active means well fitted inhibition curve with a large enough effect; inconclusive means small, poorly fitted or top-dose-only effect; inactive means flat fitted curve, though single readings scatter. Potencies beside an inconclusive call are fits to weak or partial responses and may not hold up.

Assay: qHTS for Inhibitors of human tyrosyl-DNA phosphodiesterase 1 (TDP1): qHTS in cells in presence of CPT; further: nearly all actives have a fitted effect of over 55% in size
Details: chicken DT40 Tdp1-/-;hTDP1 cells + 20 nM CPT, ATP luminescence, 48 h; activity change, negative = growth inhibition: at 46.2 µM (top of the series) unless noted
Summary of the method: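 Cell growth measured by CellTiter-Glo luminescence after a minimum 48 h, 37 C compound exposure with 20 nM CPT in Tdp1-knockout DT40 cells stably expressing hTDP1, seeded 400/well; qHTS titration format.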
On the % scale 0 is the no-effect control and ±100 the full control effect; potency means the concentration at half of the fitted maximal effect; tags describe the fitted curve by direction and shape.

Row | SMILES | Potency | activity change, negative = growth inhibition
1 | Clc1ccc(-c2nnc3sc(Cc4cccs4)nn23)c(Cl)c1 | inconclusive: 9.2 µM [inhibitor, partial curve, poor fit] | –
2 | Cc1cc(C)nc(NNS(=O)(=O)c2c(F)cc(F)cc2Br)n1 | inconclusive: 25.9 µM [inhibitor, single point] | –
3 | O=C(NC(=S)Nc1c(Cl)cc(Cl)cc1Cl)c1ccccc1 | active: 23.1 µM | –
4 | Cc1ccc(Cc2nc3ccccc3nc2SCC(=O)NCCc2ccccc2)cc1 | inconclusive: 25.9 µM [inhibitor, single point] | –
5 | O=C(Nc1ccc(OCC(=O)N2CCOCC2)cc1)c1cncc(Br)c1 | inconclusive: 11.6 µM [inhibitor, partial curve] | –
6 | CCOC(=O)Nc1cc(=O)c2ccccc2o1 | active: 8.2 µM | –
7 | NC1=NC[C@H](CC2CCCCC2)N1CCc1cc(C(F)(F)F)cc(C(F)(F)F)c1 | active: 5.8 µM | –
8 | COc1ccc(S(=O)(=O)NCCCCOc2ccc(Cl)cc2)cc1 | active: 10.3 µM | –
9 | CC(=O)c1cc(-c2ccccc2)n(CCC(=O)NCCc2ccccc2)c1C | inconclusive: 16.4 µM [inhibitor, single point] | –
10 | COc1ccc(CCNC(=O)c2oc3ccc(S(=O)(=O)N4CCOCC4)cc3c2C)cc1OC | inconclusive: 29.1 µM [inhibitor, single point] | –
11 | CCOc1cc(CNCc2ccccc2)ccc1OCC(=O)NC1CCCCC1 | active: 18.4 µM | –
12 | CS(=O)(=O)N(CCc1ccccc1)CC(=O)NCc1ccc(Cl)cc1 | – | inactive: -0.723%
13 | COC(=O)c1c(NC(=O)c2nc(SC)ncc2Cl)sc2c1CCCC2 | – | inactive: 1.49%
14 | Cc1ccccc1CN1[C@@H]2c3ccccc3C[C@@H]2OCCS1(=O)=O | inconclusive: 25.1 µM [inhibitor, single point] and inconclusive: 20.6 µM [inhibitor, single point] | –
15 | CNc1cc(=O)n(C)c(=O)n1-c1ccccc1 | – | inactive: 3.22%
16 | Cc1ccc(Cn2c(SCC(=O)NCC3CCCO3)nc3c2c(=O)n(C)c(=O)n3C)cc1 (stereo unspecified) | – | inactive: 6.24%
17 | C=CCc1ccc(OCCCCOc2ccc(C(=O)O)cc2)c(OC)c1 | – | inactive: 7.84%
18 | COC(=O)c1cc(=O)n(Cc2ccc(F)cc2)c(=Nc2ccccc2)s1 | inconclusive: 29.1 µM [inhibitor, single point] | –
19 | Cc1cccc(CCNC(=O)c2ccc3c(c2)nc2n3CCCCC2)c1 | active: 20.6 µM | –
20 | O=C(CNC(=O)c1ccc(Cl)cc1Cl)OCN1C(=O)c2ccccc2C1=O | – | inactive: 3.69%
21 | O=C(NCc1cccc(Cl)c1)c1cccc(OC2CCN(C(=O)C3CC3)CC2)c1 | active: 29.1 µM | –
